This is an account of results in the supplement of paper PMC10338343.

This assay deals with MIWI (PIWIL1) piRISC loaded with L1MC piRNA (30 nt). The assay is described as follows: pre-steady-state target cleavage rate (min^-1); MIWI and MILI are mouse PIWI proteins and EfPiwi is from a freshwater sponge; tags in brackets are library labels; higher = faster piRNA-guided slicing of the target. Conditions: guide: L1MC piRNA 5'p-UAACUAAAUACUAUGCAAGCUGUAGGUCCU
The method, boiled down:
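Cleave-'n-Seq: 1 nM active affinity-purified piRISC with one synthetic guide and 0.1 nM transcribed, DNA-blocked target RNA library were mixed, with or without 500 nM GTSF1 partner protein, in HEPES–potassium acetate buffer at 33 °C for 0–8 or 0–960 min. Uncleaved targets were sequenced and normalised to depth and to weakly complementary targets, three trials were pooled, and k3 was capped at 0.0001 min^-1. The pre-steady-state cleavage rate was fitted […].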

The mark [1] stands for this setting: auxiliary factor: 500 nM mouse GTSF1.
Setting [2] is: auxiliary factor: none (no GTSF1).

± gives the standard deviation. This is a selection; strong and weak results do not stand in their true shares.

Consider UCCUGCUACAGCUUGCAUACUAUUUAGAUA, for which the “pre-steady-state target cleavage rate” value reads like this: under setting [1], 0.145 ± 0.033; under setting [2], 0.00804 ± 0.0028.

Take UCGACCUACAGCUUGCUUAGUUUUUAGUUA: the “pre-steady-state target cleavage rate” value turned out to be 0.208 ± 0.016 under setting [1] and 0.0151 ± 0.0026 under setting [2].

UCCUGGAUGUGCAUGCAUAGUAUUUAGUUA: the “pre-steady-state target cleavage rate” value runs as follows: under setting [1], 0.13 ± 0.014; under setting [2], 0.00793 ± 0.0025.

For the sequence UCCUGGUACAGCAAGCAUAGUAUUUAGUUA, the “pre-steady-state target cleavage rate” value came to 0.644 ± 0.042 under setting [1] and 0.00321 ± 0.0015 under setting [2].

For the sequence UCCACCUACACGAUGCAUAGUAUUUAGUUA, the “pre-steady-state target cleavage rate” value was found to be 0.868 ± 0.047 under setting [1] and 0.00438 ± 0.0017 under setting [2].

As for UCCACCUACAGCUUGCAAACUAUUUAGUUA, the “pre-steady-state target cleavage rate” value is, setting by setting: under setting [1], 0.295 ± 0.027; under setting [2], 0.0061 ± 0.0024.

For UCCUCCUACAGCUUGCAUAGUAUAUUAGUUA, the “pre-steady-state target cleavage rate” value reads like this: under setting [1], 0.98 ± 0.049; under setting [2], 0.00817 ± 0.0014.

As to UGGACCUACAGCUUGCAUAGUGAUUUAGUUA, the “pre-steady-state target cleavage rate” value under setting [1] amounted to 0.0529 ± 0.0082 and the “pre-steady-state target cleavage rate” value under setting [2] was 0.00689 ± 0.0023.

Take UCCUCGUACAGCUUGCAUAGUAAUUAGUUA: the “pre-steady-state target cleavage rate” value is, setting by setting: under setting [1], 0.952 ± 0.032; under setting [2], 0.029 ± 0.007.

In the case of UCCUGGAUCAGCUUGCAUAGCAUUUAGUUA, the “pre-steady-state target cleavage rate” value was found to be 0.3 ± 0.021 under setting [1] and 0.0265 ± 0.008 under setting [2].

Consider UCCUGGAACAGCUUGCAUAGUAUAUAGUAA, for which the “pre-steady-state target cleavage rate” value came out at 0.275 ± 0.04 under setting [1] and 0.0122 ± 0.0031 under setting [2].

In the case of UCCUGGAUGAGCUUGCUUAGUAUUAAGUUA, the “pre-steady-state target cleavage rate” value under setting [1] was found to be 0.118 ± 0.018 and the “pre-steady-state target cleavage rate” value under setting [2] turned out to be 0.00713 ± 0.0029.

On to UGGACCAUCAGCUUGCAUAGUAUUUAGUAA, for which the “pre-steady-state target cleavage rate” value reads like this: under setting [1], 1.05 ± 0.053; under setting [2], 0.0577 ± 0.013.

In the case of UCGACCUAGUCCUUGCAUAGUAUUUACAAA, the “pre-steady-state target cleavage rate” value reads like this: under setting [1], 0.259 ± 0.049; under setting [2], 0.00217 ± 0.0021.

With UGGACCUACAGCUUGCAUACUAUUUUGUUA, the “pre-steady-state target cleavage rate” value came to 0.145 ± 0.014 under setting [1] and 0.0155 ± 0.0039 under setting [2].

Take UCCUGGAUGUCGUUGCACAGUAUUUAGUUA: the “pre-steady-state target cleavage rate” value by setting is: under setting [1], 0.0315 ± 0.0065; under setting [2], 0.00358 ± 0.0028.

As to UCCUGCUACAGCUUGCAUAAUAUUUAGUUA, the “pre-steady-state target cleavage rate” value runs as follows: under setting [1], 0.743 ± 0.047; under setting [2], 0.0368 ± 0.0099.

In the case of UCCUGGAUGAGCUUGCAAAGUAUAUAGUUA, the “pre-steady-state target cleavage rate” value under setting [1] was 0.323 ± 0.037 and the “pre-steady-state target cleavage rate” value under setting [2] is 0.0143 ± 0.0049.

In the case of UCCUCCAACUGCUUGCAUAGUAUUUAGUUA, the “pre-steady-state target cleavage rate” value under setting [1] turned out to be 1.05 ± 0.044 and the “pre-steady-state target cleavage rate” value under setting [2] is 0.0455 ± 0.0077.

With UGGACCUAGAGCUAGCAUAGUAUUUAGUUA, the “pre-steady-state target cleavage rate” value is, setting by setting: under setting [1], 1.06 ± 0.063; under setting [2], 0.0168 ± 0.0043.

Take GGGACCUACAGCUUGCAUAGUAUUUAGUUA: the “pre-steady-state target cleavage rate” value came to 1.32 ± 0.097 under setting [1] and 0.113 ± 0.025 under setting [2].

Turning to UCCUGGAUGUCCUUGCAUAGUAUUUAGAUA, the “pre-steady-state target cleavage rate” value is 0.0681 ± 0.017 under setting [1] and 0.00492 ± 0.0024 under setting [2].

Turning to UCCUGGAUCAGCUUGCAUAGAAUAUAGUUA, the “pre-steady-state target cleavage rate” value was 0.0634 ± 0.014 under setting [1] and 0.00907 ± 0.0046 under setting [2].

Consider UCCUCCUAAAGCUUGCAUAGUAUUUAGUUA, for which the “pre-steady-state target cleavage rate” value reads like this: under setting [1], 0.335 ± 0.04; under setting [2], 0.0256 ± 0.0043.

As for UGCACCUACAGCUUGCAAAGUAUUUAGUUA, the “pre-steady-state target cleavage rate” value by setting is: under setting [1], 1.23 ± 0.08; under setting [2], 0.0409 ± 0.0074.

For the sequence UCCUGGAUGUGCUUGCAUAGUAUUUUCUUA, the “pre-steady-state target cleavage rate” value by setting is: under setting [1], 0.0246 ± 0.0091; under setting [2], 0.00388 ± 0.0027.

As for AGGACCUACACCUUGCAAAGUAUUUAGUUA, the “pre-steady-state target cleavage rate” value came to 1.19 ± 0.036 under setting [1] and 0.0555 ± 0.01 under setting [2].

For UCCUGGAUGAGCUAGCAUAGUAUUUACUUA, the “pre-steady-state target cleavage rate” value by setting is: under setting [1], 0.347 ± 0.065; under setting [2], 0.0108 ± 0.0032.

As to UCCUCCUACAGCUUGCAUAGUAUUUAGUGA, the “pre-steady-state target cleavage rate” value was 0.374 ± 0.053 under setting [1] and 0.0212 ± 0.0042 under setting [2].

Consider UCCUGGUACGAGCUUGCAUAGUAUUUAGUUA, for which the “pre-steady-state target cleavage rate” value reads like this: under setting [1], 0.398 ± 0.064; under setting [2], 0.0234 ± 0.0059.

In the case of UCCUGGAACAGCUUGCAUAGUAUUAAGUAA, the “pre-steady-state target cleavage rate” value was determined as 0.207 ± 0.034 under setting [1] and 0.00983 ± 0.0037 under setting [2].

As to UCCUGGAUCAGCUUGCAUAGUAUAUUAGUUA, the “pre-steady-state target cleavage rate” value reads like this: under setting [1], 0.959 ± 0.094; under setting [2], 0.00658 ± 0.0033.

UCCUGGUACAGCUUGCAUAGUAUUUUCUAA: the “pre-steady-state target cleavage rate” value is, setting by setting: under setting [1], 0.176 ± 0.049; under setting [2], 0.00327 ± 0.0027.

For the sequence UGGACCUACAGCAUGCAUAGUAUAUAGUUA, the “pre-steady-state target cleavage rate” value reads like this: under setting [1], 0.976 ± 0.069; under setting [2], 0.0194 ± 0.0041.

For UCGACCUACCAGCUUGCAUAGUAUUUAGUUA, the “pre-steady-state target cleavage rate” value by setting is: under setting [1], 1.29 ± 0.064; under setting [2], 0.0725 ± 0.016.

As to UGGACCUACAGUCUUGCAUAGUAUUUAGUUA, the “pre-steady-state target cleavage rate” value under setting [1] amounted to 1.15 ± 0.087 and the “pre-steady-state target cleavage rate” value under setting [2] was determined as 0.0649 ± 0.013.

For the sequence UGGACCUACAGCUGUGCAUAGUAUUUAGUUA, the “pre-steady-state target cleavage rate” value reads like this: under setting [1], 1.28 ± 0.11; under setting [2], 0.0389 ± 0.0098.

Regarding AGGAGCCUACAGCUUGCAUAGUAUUUAGUUA, the “pre-steady-state target cleavage rate” value by setting is: under setting [1], 1.4 ± 0.072; under setting [2], 0.0847 ± 0.013.

For UCCACCUACAGCUUGCAUAGUAUUUAGGUA, the “pre-steady-state target cleavage rate” value under setting [1] came out at 0.3 ± 0.054 and the “pre-steady-state target cleavage rate” value under setting [2] worked out at 0.00404 ± 0.0029.

As for UCGACCUACAGCUUGCAUAGAUUUUAGUUA, the “pre-steady-state target cleavage rate” value came out at 0.16 ± 0.019 under setting [1] and 0.00625 ± 0.0027 under setting [2].

For the sequence ACGACCUAGAGCUUGCAUAGUAUUUAGUUA, the “pre-steady-state target cleavage rate” value reads like this: under setting [1], 1.15 ± 0.065; under setting [2], 0.0682 ± 0.011.

UCCUGGAUGUGCUUGCAUAGUUAUUAGUUA: the “pre-steady-state target cleavage rate” value stood at 0.00955 ± 0.0048 under setting [1] and 0.00708 ± 0.0028 under setting [2].

Turning to UCCUGGAUGAGCUGCAUAGUAUUUAGUUA, the “pre-steady-state target cleavage rate” value was 0.0636 ± 0.0082 under setting [1] and 0.00507 ± 0.0026 under setting [2].

UCCUGCUAGAGCUUGCUUAGUAUUUAGUUA: the “pre-steady-state target cleavage rate” value is, setting by setting: under setting [1], 0.492 ± 0.047; under setting [2], 0.0179 ± 0.0037.

Regarding UCCUGGAUGAGCUUGCAUAGAAUUUAGAUA, the “pre-steady-state target cleavage rate” value reads like this: under setting [1], 0.0718 ± 0.018; under setting [2], 0.00652 ± 0.0025.

On to UCCACCUACAGCUUGCAUAGUAUUAAGUAA, for which the “pre-steady-state target cleavage rate” value is 0.314 ± 0.039 under setting [1] and 0.00793 ± 0.0033 under setting [2].

Turning to UGGACCUACAGGUUGCUUAGUAUUUAGUUA, the “pre-steady-state target cleavage rate” value reads like this: under setting [1], 1.04 ± 0.061; under setting [2], 0.0177 ± 0.0036.

In the case of UCCUCCUUCAGCUUGCAUAGUUUUUAGUUA, the “pre-steady-state target cleavage rate” value runs as follows: under setting [1], 0.377 ± 0.021; under setting [2], 0.0263 ± 0.006.

Take UCCUGGUACAGCUUGCAUACUAUUUAGAUA: the “pre-steady-state target cleavage rate” value came to 0.055 ± 0.015 under setting [1] and 0.00449 ± 0.0022 under setting [2].

Turning to UCCUGGAUCAGCUUGGAAAGUAUUUAGUUA, the “pre-steady-state target cleavage rate” value under setting [1] is 0.323 ± 0.026 and the “pre-steady-state target cleavage rate” value under setting [2] turned out to be 0.00319 ± 0.0027.
